# Source: PubChem BioAssay AID1347073 (National Center for Advancing Translational Sciences (NCATS), 2019)
# Screen size: about 45,000 compounds; about 200 (0.44%) were called active. Inconclusive results (about 7%) are left out. Calls come from the whole dose curve; as a rule, active = well fitted activation curve with a large enough effect; inconclusive = small, poorly fitted or top-dose-only effect; inactive = no such curve, though single readings can be large or run the other way. This is one part of the list.
# Assay: qHTS of TDP-43 Inhibitors: NCGC Sytravon Library Screen; note: 0% is about no effect; nearly all actives have a fitted effect of over 55% in size
# Settings: yeast TDP-43 toxicity rescue, BacTiter-Glo growth, 24 h; series mostly up to 46.1 µM; growth rescue (activation): at the top concentration
# Procedure, shortened: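 TDP-43-expressing yeast, pregrown in raffinose, seeded at OD600 0.02 in galactose medium with compound for 24 hr at 30 deg C. Growth read by BacTiter-Glo luminescence, so rescue of toxicity appears as activation.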
row,Structure (SMILES),growth rescue (activation)
1,COC(=O)c1cc(COC(=O)c2nc3nccc(C)n3n2)oc1C,inactive: 9.91%
2,N#Cc1c(Cl)nc(N/N=C/c2ccccc2)c(Cl)c1Cl,inactive: 17.7%
3,CCOc1ccc(CCNc2nc3ccc(C)cc3n3cnnc23)cc1OCC,inactive: 24.3%
4,NS(=O)(=O)c1ccc(CCNC(=O)CN2C(=O)NC(c3ccccc3)(c3ccccc3)C2=O)cc1,inactive: 12.9%
5,CN(C)C(CNC(=O)CCCN1C(=O)c2cccc3cccc(c23)C1=O)c1ccccc1 (configuration not stated),inactive: -6.68%
6,O=S1(=O)NC(=NCCOCCO)c2ccccc21,inactive: -6.82%
7,O=c1cc(CSc2ccc(Cl)cc2)nc(-c2ccccc2)[nH]1,inactive: -0.611%
8,O=C(Cn1c(=O)n(Cc2ccc(F)cc2)c(=O)c2ccccc21)NCC1CCCO1 (configuration not stated),inactive: -9.39%
9,O=c1c2c([nH]c3ccccc13)CCCCC2,inactive: -4.02%
10,NC(Cc1ccc(F)cc1)c1csc(Nc2cc(NCc3ccco3)ncn2)n1 (configuration not stated),inactive: 14.6%
11,CCN1CCN(c2nc3ccccn3c(=O)c2/C=C(\C#N)S(=O)(=O)c2ccccc2)CC1,inactive: 0.404%
12,CCOCCCn1c(SCc2ccccc2)nnc1-c1ccncc1,inactive: 6.22%
13,O=C(NC1=C(Nc2ccc(F)cc2)C(=O)c2ccccc2C1=O)c1ccc(Cl)cc1,inactive: 8.38%
14,Cc1c(NC(=O)CN2CCN(c3cccc(Cl)c3)CC2)c(=O)n(-c2ccccc2)n1C,inactive: -5.09%
15,COc1cccc(C(Nc2ccccn2)c2oc(CO)cc(=O)c2O)c1 (configuration not stated),inactive: 3.79%
16,Cc1ccc2nc(/C(C#N)=C\c3ccc(Oc4ccc(C(F)(F)F)cc4[N+](=O)[O-])cc3)[nH]c2c1,inactive: 22.8%
17,COCCC(=O)N1CCc2c([nH]c3ccccc23)C1C(C)(C)C (configuration not stated),inactive: 12%
18,Cc1cnc(C(=O)Nc2ccc(S(=O)(=O)NCC(C)C)cc2)cn1,inactive: 2.15%
19,CCCC(=O)N1CCCC1(C)C(=O)Nc1cc(OC)c(OC)c(OC)c1 (configuration not stated),inactive: 1.17%
20,CCc1nc2ccc(C(=O)Nc3ccc4c(c3)OCC(=O)N4)cn2c1N(CC)Cc1cccc(Br)c1,inactive: -11.6%
21,CCOC(=O)CC(NC(=O)CCc1c(C)nc2ncnn2c1C)c1ccc(OC(C)C)cc1 (configuration not stated),inactive: 7.88%
22,CC1(c2ccccc2Br)NC(=O)N(CC(=O)N2CCc3ccccc3C2)C1=O (configuration not stated),inactive: 12%
23,COc1ccc(CNC(=O)C2CCC(CNS(=O)(=O)c3cccs3)CC2)cc1 (configuration not stated),inactive: 15.1%

row,Structure (SMILES),growth rescue (activation)
1,Cc1ccccc1-n1c(SCC(=O)N2CCN(c3ccccn3)CC2)nnc1N1CCOCC1,inactive: 6.58%
2,Cc1ccc(S(=O)(=O)N(C)CC(=O)N2CCN(Cc3ccccc3)CC2)cc1,inactive: -5.77%
3,O=C(NC(c1ccc(-c2ccccc2)cc1)c1cnccn1)C1CCN(CCOc2ccc(F)cc2)CC1 (configuration not stated),inactive: 7.79%
4,O=C(CN(C(=O)c1csnn1)c1ccc(Cl)cc1)NCCc1ccccc1,inactive: 2.42%
5,O=C(Cc1cccs1)Nc1nc(-c2ccc(F)c(F)c2)cs1,inactive: 4.25%
6,COc1ccc(C(=O)OCC(=O)C(C)(C)C)cc1S(=O)(=O)N(C)CCc1cccnc1,inactive: -16.8%
7,O=C(NCc1ccccn1)c1cc(S(=O)(=O)N2CCCCCC2)ccc1Cl,inactive: 28%
8,CCc1ccccc1NC(=O)C1(S(=O)(=O)c2ccc(C)cc2)CC1,inactive: 20.6%
9,O=C(COC(=O)[C@@H]1CC(O)CN1S(=O)(=O)c1ccc(Cl)c(Cl)c1)NC(=O)NCc1ccccc1 (some centres not stated),inactive: -3.88%
10,CCOc1ccc(NC(=O)NCCN2CCN(c3ccccc3F)CC2)cc1,inactive: 6.27%
11,CCN(Cc1nc(-c2ccccc2)no1)C(=O)c1ccco1,inactive: 33.1%
12,COc1ccc(O)c(/C=N/Nc2nc3ccccc3[nH]2)c1,inactive: 12.3%
13,Nn1c(SCc2ccc(Br)cc2)nnc1-c1ccccn1,inactive: -18.6%
14,Cc1nc(SCC(=O)NC2CCCC2)c2c(C)c(C)sc2n1,inactive: 14.2%
15,C=CCNC(=O)NC(=O)COC(=O)c1nc2nccc(C)n2n1,inactive: 1.77%
16,C/C(=N\NC(=O)CNC(=O)c1ccco1)c1ccc(Br)cc1,inactive: 8.29%
17,CC(C)(CN1CCc2ccccc2C1)NS(=O)(=O)c1ccc(Cl)cc1,inactive: 5.37%
18,Cc1noc(C(=O)NC2CCCCC2)c1Cl,inactive: -7.11%
19,O=C(NC1CCOc2ccccc21)c1ccc(=O)[nH]c1 (configuration not stated),inactive: -17.1%
20,Cc1ccc(C(=O)N2CCOCC2)cc1S(=O)(=O)N1CCCC1,inactive: 3.99%
21,CC1Cc2ccccc2N1S(=O)(=O)c1cccc(C(=O)NCCCn2ccnc2)c1 (configuration not stated),inactive: 1.05%
22,O=C(COc1ccccc1)Nc1nnc(COc2ccccc2)s1,inactive: 26.1%
23,Cc1ccc([N+](=O)[O-])cc1S(=O)(=O)N1CCCN(C)CC1,inactive: 10.7%

row,Structure (SMILES),growth rescue (activation)
1,O=C(N/N=C1\CCCc2oc(C(=O)O)cc21)c1ccccc1,inactive: 4.96%
2,C=CCN1C(=O)/C(=c2\sc3nc(=O)c(Cc4ccc(OC)c(OC)c4)nn3c2=O)c2ccccc21,inactive: -7%
3,COc1ccc(CSCC(=O)Nc2ccccc2)cc1[N+](=O)[O-],inactive: 18.7%
4,O=C(NC(=S)NCC1CCCO1)c1ccc([N+](=O)[O-])cc1 (configuration not stated),inactive: 26.2%
5,CCCn1nc(Oc2nc(NC(C)C)nc(N(C)C)n2)ccc1=O,inactive: 12.6%
6,COc1ccccc1NS(=O)(=O)c1ccc2oc(N)nc2c1,inactive: 5.51%
7,Fc1ccc2c(c1)C(c1cccnc1)=NNC(c1cccs1)=N2,inactive: 18.2%
8,Cc1ccc(C(=O)Nc2ccc3c(c2)CCC3)cc1S(=O)(=O)N1CCOCC1,inactive: 12.4%
9,COc1ccc(NC(=S)NCC(c2cccnc2)N2CCOCC2)cc1 (configuration not stated),inactive: 7.19%
10,CCOC(=O)c1c(CSc2ccccc2)oc2cc(Br)c(O)c(CN(C)C)c12,inactive: -3.97%
11,CCOC(=O)N(NC(=O)C(O)(c1ccccc1)c1ccccc1)c1ccccc1,inactive: 3.72%
12,Cc1ccc(S(=O)(=O)N2CCN(S(=O)(=O)N3CCCCC3)CC2)cc1C,inactive: -6.09%
13,O=c1[nH]c(N/N=C/c2ccccc2Br)nnc1-c1ccccc1,inactive: 0.541%
14,O=C(Cc1ccccc1F)Nc1nc(-c2cccnc2)cs1,inactive: 8.08%
15,CCOC(=O)c1c(NC(=O)c2cccc([N+](=O)[O-])c2C(=O)O)sc2c1CCCC2,inactive: 2.87%
16,C#CCn1cc(/C=C2\NC(=O)NC2=O)c2ccccc21,inactive: 7.65%
17,Cc1c(CC(=O)N[C@H](C(=O)O)C(C)C)c(=O)oc2cc3c(cc12)CCC(C)(C)O3,inactive: -7.79%
18,O=c1cc(CSc2nnc(C3CC3)n2Cc2ccccc2)nc2sccn12,inactive: 5.95%
19,N#CC1=C(N)C2=CCCC[C@H]2[C@H](c2ccccc2)C1(C#N)C#N,inactive: 8.56%
20,O=C(CCCn1c(=O)[nH]c2ccc(Br)cc2c1=O)NCc1ccc(Cl)cc1,inactive: 5.28%
21,CCOC(=O)c1cnn2c(C(F)F)cc(C3CC3)nc12,inactive: 20.6%
